From the supplement of paper PMC8728848
This is one part of the list.

Experiments:
Test in all cases: glycan array binding signal (z-score within array); higher = stronger binding
Conditions in all cases: glycan notation: IUPAC condensed, linker removed
Fuc(a1-2)Gal = target: Fuc(a1-2)Gal
Outline: (§1)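 The binding signal is a Z-score computed within each array and averaged over linkers. Arrays of the same protein sequence at different concentrations or buffers were also averaged together. Data originate from 3228 arrays in the Consortium for Functional Glycomics database, kept only where the protein sequence was available.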

Fuc(a1-2)Gal(b1-3)GalNAc = target: Fuc(a1-2)Gal(b1-3)GalNAc
Outline: as §1

[1] = target: Fuc(a1-2)Gal(b1-3)GalNAc(b1-3)Gal
Outline: as §1

[2] = target: Fuc(a1-2)Gal(b1-3)GalNAc(b1-3)Gal(a1-4)Gal(b1-4)Glc
Outline: as §1

[3] = target: Fuc(a1-2)Gal(b1-3)GalNAc(b1-4)[Neu5Ac(a2-3)]Gal(b1-4)Glc
Outline: as §1

Fuc(a1-2)Gal(b1-3)GlcNAc = target: Fuc(a1-2)Gal(b1-3)GlcNAc
Outline: as §1

[4] = target: Fuc(a1-2)Gal(b1-3)GlcNAc(b1-3)Gal(b1-4)Glc
Outline: as §1

[5] = target: Fuc(a1-2)Gal(b1-3)[Fuc(a1-4)]GlcNAc
Outline: as §1

Fuc(a1-2)Gal(b1-4)Glc = target: Fuc(a1-2)Gal(b1-4)Glc
Outline: as §1

Fuc(a1-2)Gal(b1-4)Glc6S = target: Fuc(a1-2)Gal(b1-4)Glc6S
Outline: as §1

Fuc(a1-2)Gal(b1-4)GlcNAc = target: Fuc(a1-2)Gal(b1-4)GlcNAc
Outline: as §1

[6] = target: Fuc(a1-2)Gal(b1-4)GlcNAc(b1-3)Gal(b1-4)GlcNAc
Outline: as §1

[7] = target: Fuc(a1-2)Gal(b1-4)GlcNAc(b1-3)Gal(b1-4)GlcNAc(b1-3)Gal(b1-4)GlcNAc
Outline: as §1

[8] = target: Fuc(a1-2)Gal(b1-4)GlcNAc6S
Outline: as §1

[9] = target: Fuc(a1-2)Gal(b1-4)[Fuc(a1-3)]GlcNAc
Outline: as §1

[10] = target: Fuc(a1-2)Gal(b1-4)[Fuc(a1-3)]GlcNAc(b1-3)Gal(b1-4)[Fuc(a1-3)]GlcNAc
Outline: as §1

[11] = target: Fuc(a1-2)Gal(b1-4)[Fuc(a1-3)]GlcNAc(b1-3)Gal(b1-4)[Fuc(a1-3)]GlcNAc(b1-3)Gal(b1-4)[Fuc(a1-3)]GlcNAc
Outline: as §1

Fuc(a1-2)Gal6S(b1-4)Glc = target: Fuc(a1-2)Gal6S(b1-4)Glc
Outline: as §1

[12] = target: Fuc(a1-2)Gal6S(b1-4)Glc6S
Outline: as §1

[13] = target: Fuc(a1-2)Gal6S(b1-4)GlcNAc
Outline: as §1

Fuc(a1-2)[Gal(a1-3)]Gal = target: Fuc(a1-2)[Gal(a1-3)]Gal
Outline: as §1

[14] = target: Fuc(a1-2)[Gal(a1-3)]Gal(b1-3)GlcNAc
Outline: as §1

[15] = target: Fuc(a1-2)[Gal(a1-3)]Gal(b1-4)Glc
Outline: as §1

[16] = target: Fuc(a1-2)[Gal(a1-3)]Gal(b1-4)GlcNAc
Outline: as §1

[17] = target: Fuc(a1-2)[Gal(a1-3)]Gal(b1-4)[Fuc(a1-3)]GlcNAc
Outline: as §1

[18] = target: Fuc(a1-2)[Gal(a1-4)]Gal(b1-4)GlcNAc
Outline: as §1

[19] = target: Fuc(a1-2)[GalNAc(a1-3)]Gal
Outline: as §1

[20] = target: Fuc(a1-2)[GalNAc(a1-3)]Gal(b1-3)GlcNAc
Outline: as §1

[21] = target: Fuc(a1-2)[GalNAc(a1-3)]Gal(b1-4)Glc
Outline: as §1

[22] = target: Fuc(a1-2)[GalNAc(a1-3)]Gal(b1-4)GlcNAc
Outline: as §1

[23] = target: Fuc(a1-2)[GalNAc(a1-3)]Gal(b1-4)[Fuc(a1-3)]GlcNAc
Outline: as §1

[24] = target: Fuc(a1-2)[GalNAc(a1-4)]Gal(b1-4)GlcNAc
Outline: as §1

[25] = target: Fuc(a1-2)[GalNAc(b1-3)]Gal
Outline: as §1

Fuc(a1-3)GlcNAc = target: Fuc(a1-3)GlcNAc
Outline: as §1

[26] = target: Fuc(a1-3)[Gal(b1-4)]Glc6S
Outline: as §1

[27] = target: Fuc(a1-3)[Gal(b1-4)]GlcNAc
Outline: as §1

[28] = target: Fuc(a1-3)[Gal(b1-4)]GlcNAc(b1-2)Man(a1-3)[Fuc(a1-3)[Gal(b1-4)]GlcNAc(b1-2)Man(a1-6)]Man(b1-4)GlcNAc(b1-4)GlcNAc
Outline: as §1

[29] = target: Fuc(a1-3)[Gal(b1-4)]GlcNAc(b1-2)Man(a1-6)[Gal(b1-4)GlcNAc(b1-2)Man(a1-3)]Man(b1-4)GlcNAc(b1-4)GlcNAc
Outline: as §1

[30] = target: Fuc(a1-3)[Gal(b1-4)]GlcNAc(b1-3)Gal(b1-3)[Fuc(a1-4)]GlcNAc
Outline: as §1

[31] = target: Fuc(a1-3)[Gal(b1-4)]GlcNAc(b1-4)Gal(b1-4)[Fuc(a1-3)]GlcNAc
Outline: as §1

[32] = target: Fuc(a1-3)[Gal(b1-4)]GlcNAc(b1-4)Gal(b1-4)[Fuc(a1-3)]GlcNAc(b1-4)Gal(b1-4)[Fuc(a1-3)]GlcNAc
Outline: as §1

[33] = target: Fuc(a1-3)[Gal(b1-4)]GlcNAc6S
Outline: as §1

[34] = target: Fuc(a1-3)[Gal3S(b1-4)]Glc6S
Outline: as §1

[35] = target: Fuc(a1-3)[Gal3S(b1-4)]GlcNAc
Outline: as §1

[36] = target: Fuc(a1-3)[Gal3S(b1-4)]GlcNAc6S
Outline: as §1

B1: SLR2P2A3 (Tachypleus tridentatus), TAL2_TACTR (protein)
chain: MEKGTPPTHDSDNWMGRAKKIGNGGWNQFQFLFFDPNGYLYAVSKDKLYKASPPQSDTDNWIARATEIGSGGWSGSKFLFFHPNGYLYAVHGQRLYKALPPVSNQD
Question: For B1, which “glycan array binding signal (z-score)” value (Fuc(a1-2)Gal) is on record?
Answer: Its value is -0.04.

Question: What about the “glycan array binding signal (z-score)” value (Fuc(a1-2)Gal(b1-3)GalNAc) of the same binder?
Answer: Its value is -0.577.

Question: And the “glycan array binding signal (z-score)” value [1]?
Answer: Its value is 0.249.

Question: What about the “glycan array binding signal (z-score)” value [2] of the same binder?
Answer: The value was -0.208.

Question: What about the “glycan array binding signal (z-score)” value [3] of the same binder?
Answer: The value was -0.156.

Question: What about the “glycan array binding signal (z-score)” value (Fuc(a1-2)Gal(b1-3)GlcNAc) of the same binder?
Answer: The value was -0.103.

Question: And the “glycan array binding signal (z-score)” value [4]?
Answer: Its value is -0.003.

Question: What about the “glycan array binding signal (z-score)” value [5] of the same binder?
Answer: Its value is -0.287.

Question: What about the “glycan array binding signal (z-score)” value (Fuc(a1-2)Gal(b1-4)Glc) of the same binder?
Answer: The value was -0.411.

Question: What about the “glycan array binding signal (z-score)” value (Fuc(a1-2)Gal(b1-4)Glc6S) of the same binder?
Answer: The value was -0.046.

Question: What about the “glycan array binding signal (z-score)” value (Fuc(a1-2)Gal(b1-4)GlcNAc) of the same binder?
Answer: The value was -0.249.

Question: What about the “glycan array binding signal (z-score)” value [6] of the same binder?
Answer: Its value is -0.353.

Question: And the “glycan array binding signal (z-score)” value [7]?
Answer: The value was -0.546.

Question: And the “glycan array binding signal (z-score)” value [8]?
Answer: The value was -0.249.

Question: What about the “glycan array binding signal (z-score)” value [9] of the same binder?
Answer: Its value is -0.444.

Question: What about the “glycan array binding signal (z-score)” value [10] of the same binder?
Answer: The value was -0.48.

Question: What about the “glycan array binding signal (z-score)” value [11] of the same binder?
Answer: Its value is -0.621.

Question: What about the “glycan array binding signal (z-score)” value (Fuc(a1-2)Gal6S(b1-4)Glc) of the same binder?
Answer: The value was -0.125.

Question: What about the “glycan array binding signal (z-score)” value [12] of the same binder?
Answer: The value was -0.09.

Question: And the “glycan array binding signal (z-score)” value [13]?
Answer: The value was -0.306.

Question: What about the “glycan array binding signal (z-score)” value (Fuc(a1-2)[Gal(a1-3)]Gal) of the same binder?
Answer: Its value is -0.054.

Question: What about the “glycan array binding signal (z-score)” value [14] of the same binder?
Answer: The value was -0.291.

Question: What about the “glycan array binding signal (z-score)” value [15] of the same binder?
Answer: Its value is -0.191.

Question: What about the “glycan array binding signal (z-score)” value [16] of the same binder?
Answer: Its value is -0.228.

Question: And the “glycan array binding signal (z-score)” value [17]?
Answer: Its value is 0.119.

Question: And the “glycan array binding signal (z-score)” value [18]?
Answer: The value was -0.148.

Question: What about the “glycan array binding signal (z-score)” value [19] of the same binder?
Answer: Its value is 0.375.

Question: What about the “glycan array binding signal (z-score)” value [20] of the same binder?
Answer: Its value is -0.284.

Question: And the “glycan array binding signal (z-score)” value [21]?
Answer: Its value is 0.698.

Question: What about the “glycan array binding signal (z-score)” value [22] of the same binder?
Answer: Its value is 1.17.

Question: And the “glycan array binding signal (z-score)” value [23]?
Answer: Its value is -0.056.

Question: What about the “glycan array binding signal (z-score)” value [24] of the same binder?
Answer: Its value is 7.28.

Question: What about the “glycan array binding signal (z-score)” value [25] of the same binder?
Answer: The value was 0.037.

Question: What about the “glycan array binding signal (z-score)” value (Fuc(a1-3)GlcNAc) of the same binder?
Answer: The value was -0.603.

Question: And the “glycan array binding signal (z-score)” value [26]?
Answer: Its value is -0.545.

Question: What about the “glycan array binding signal (z-score)” value [27] of the same binder?
Answer: Its value is -0.187.

Question: What about the “glycan array binding signal (z-score)” value [28] of the same binder?
Answer: Its value is -0.397.

Question: What about the “glycan array binding signal (z-score)” value [29] of the same binder?
Answer: Its value is -0.56.

Question: And the “glycan array binding signal (z-score)” value [30]?
Answer: Its value is -0.323.

Question: And the “glycan array binding signal (z-score)” value [31]?
Answer: The value was -0.31.

Question: What about the “glycan array binding signal (z-score)” value [32] of the same binder?
Answer: Its value is -0.271.

Question: What about the “glycan array binding signal (z-score)” value [33] of the same binder?
Answer: Its value is -0.305.

Question: What about the “glycan array binding signal (z-score)” value [34] of the same binder?
Answer: The value was 0.193.

Question: And the “glycan array binding signal (z-score)” value [35]?
Answer: The value was -0.415.

Question: What about the “glycan array binding signal (z-score)” value [36] of the same binder?
Answer: Its value is 0.066.
